# Assay results: paper PMC6212790
# The other results are listed elsewhere or left out. At the low end of the ranking, values are background and their order means little.
# Target: T1, GST-Rok (full length) (UniProt O34857)
# T1 sequence: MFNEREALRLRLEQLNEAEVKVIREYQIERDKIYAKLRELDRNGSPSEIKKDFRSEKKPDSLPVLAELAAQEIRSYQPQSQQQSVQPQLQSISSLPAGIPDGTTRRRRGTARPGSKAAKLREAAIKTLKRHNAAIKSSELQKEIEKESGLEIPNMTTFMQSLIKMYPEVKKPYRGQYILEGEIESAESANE
# Assay: protein binding microarray;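 further: rank score from −0.5 (least bound) to 0.5 (best bound)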
# Details: Rok is a gene silencer of Bacillus subtilis; high values mean tight binding; most listed sequences are background and not binding sites; double strand, one strand shown
row,Sequence,binding signal [E-score]
1,CCACGGAG,-0.187
2,TATTAAGA,0.218
3,AACTCCAA,-0.254
4,GGAGAACC,-0.0812
5,GACATCAC,-0.199
6,ACGGTACC,0.125
7,CTGACGCC,-0.289
8,CATCGGTC,-0.11
9,ACTGGACC,-0.255
10,CTCCTGTA,0.00506
11,CGCAGCGC,-0.187
12,AAGTGTGA,0.0397
13,AACGGCAT,0.00282
14,ACCTGAGT,-0.0561
15,AATAATGC,0.352
16,GGTTGGCA,-0.138
17,AACGAACC,0.142
18,ATGATCCA,0.0872
19,GGAAATAA,0.115
20,CCGCAGGA,-0.33
21,CACACTTC,0.0377
22,CGCAAGCG,-0.189
23,GTGTTGTA,0.228
24,ATTTCCAG,0.232
25,GGCACAAA,-0.0178

row,Sequence,binding signal [E-score]
1,CTCTGCCA,-0.272
2,ATTTGGAA,0.171
3,CACCGGCG,-0.283
4,ATTACCCC,-0.0805
5,ATCGGGAA,-0.0601
6,CAAATCAA,-0.071
7,CTCACGTA,-0.000346
8,CATGCTGA,-0.132
9,ACACGAAT,0.0524
10,TCGTTTAA,0.0139
11,AGACCAGC,-0.103
12,CAGCGAGG,-0.314
13,AACTAGCC,0.272
14,GAATTTGA,0.108
15,ACTAGTCT,0.248
16,AATCTGTC,0.0375
17,CACTCAGG,-0.198
18,ATGCAATC,0.226
19,CAAATTTC,0.0992
20,AGGACTTC,-0.154
21,AACTGAGT,0.0634
22,AGCCTACT,0.015
23,ACACGCTA,0.146
24,ACTCCCGA,0.0476
25,AAGTATTC,0.178

row,Sequence,binding signal [E-score]
1,ACGCCGAC,-0.196
2,ACGGATAA,0.00676
3,CGTCTATA,0.145
4,CCCTACAC,-0.13
5,AGATTGAC,0.0401
6,AAAAATGA,-0.0293
7,ATTGGGCG,-0.199
8,ATGATAGC,0.179
9,CTGCTACC,0.0779
10,CTAGGACC,-0.192
11,ACCATTGC,0.171
12,GCCGCATA,-0.186
13,GGGCGCTA,-0.198
14,GGAACACC,-0.364
15,AAGCCTGT,-0.213
16,CCAGTCGC,-0.0693
17,ATGGGTAA,0.286
18,AGTAGCCG,0.0329
19,ACAGTCGA,0.0235
20,AAGCTAGA,0.253
21,AACTCGGC,0.205
22,ATTTTATA,0.41
23,CAGGTGGG,-0.362
24,AATTGTGG,-0.0645
25,ACATAGAT,0.346

row,Sequence,binding signal [E-score]
1,AAGGTGCT,-0.112
2,ACGTCCAA,-0.182
3,AGACTCAC,-0.19
4,ATGGGACG,-0.18
5,ATTGTTAG,0.294
6,TGGGAACA,-0.069
7,ATGAAAAT,-0.00181
8,CAATCCGA,-0.0679
9,GGGTCCGA,-0.271
10,AAAATTTA,0.293
11,CACCTCGG,-0.0675
12,AAACCTAC,0.27
13,CTGCACGC,-0.119
14,AATCTAAC,0.189
15,CCGCAAGA,-0.177
16,ATCATCAG,0.0421
17,ATGCTCTC,-0.109
18,CCAGACGA,-0.0424
19,AAGCTGAT,0.0256
20,TAGGTGGA,-0.136
21,GTAGCCCA,-0.113
22,CTGTCCGA,0.025
23,ATCGTTTG,-0.0128
24,CATAAGCC,-0.107
25,ACGTGGAC,-0.0607

row,Sequence,binding signal [E-score]
1,CAGGGTCG,-0.35
2,CGTGTTAA,-0.00492
3,CGATCCAG,0.101
4,TGGGGACA,-0.161
5,CGCGGGTC,-0.277
6,AAGGGCAT,0.0808
7,TGACCTCA,0.0164
8,CACGAGTG,-0.173
9,ACTAAGGC,-0.0542
10,CATAAAAC,0.202
11,CGATTCCG,-0.0412
12,ACCCCCAG,-0.357
13,TAGATCCA,0.167
14,CAAGGTGC,-0.39
15,AGTTTGTG,0.23
16,ATCCGAGC,-0.188
17,AACGGGAT,0.0521
18,ATATTTAG,0.287
19,AAGTCCAG,-0.0463
20,AGGCGCTC,-0.32
21,CATAAAAA,0.0981
22,CCAACGAA,0.0727
23,AAGGGGGA,-0.175
24,GCCTAGAA,-0.0275
25,ATTTCGAG,0.194

row,Sequence,binding signal [E-score]
1,AGGTGCGA,-0.0982
2,GACTTAGA,-0.202
3,CATTACAA,0.251
4,CTAAACAC,0.0731
5,GATTCGCC,-0.182
6,CACAATGC,-0.0836
7,ACAACGGG,-0.154
8,AATGAAGT,0.08
9,CGTGTGGA,-0.0919
10,CGACTCTC,-0.152
11,ATTTCGCC,-0.0734
12,GACCTTGA,-0.147
13,TATGAGGA,0.0118
14,AGAGTTAG,0.068
15,CCTCATAG,-0.104
16,ATGGGTCA,-0.0161
17,AGGGGACG,-0.337
18,ATTATAGC,0.173
19,TACAGCCA,-0.0232
20,GTGTCAAC,-0.245
21,CGACATTA,0.0381
22,GTCCAAGA,0.0111
23,AAAGTCCA,-0.179
24,AATCGTTG,-0.0397
25,CCTGAAGG,-0.26

row,Sequence,binding signal [E-score]
1,CCGTCGCC,-0.326
2,CCTCGCAG,-0.227
3,CTCACAAC,0.0239
4,CAGATAGC,0.0485
5,AATAGCTC,0.125
6,CAAGCAGA,0.135
7,AGTAGGGA,-0.0578
8,CCGTCCAG,-0.187
9,GGAACAGA,-0.159
10,CCACTATC,0.127
11,AGATCTGC,0.168
12,CCTTTGGC,-0.39
13,CTGTCCTA,-0.000277
14,GGGACGAA,-0.156
15,AGATTCAT,0.202
16,CATATTCG,0.124
17,CCTTTGGA,-0.265
18,ATTTTCGA,0.0431
19,ATCAGATC,0.0898
20,ATAGGCAG,0.108
21,CTTTGGAC,-0.199
22,CGGACTCC,-0.228
23,CAGATAAG,0.0501
24,ATTTAATC,0.147
25,ACCTGTTG,-0.0678

row,Sequence,binding signal [E-score]
1,CGGATACC,-0.036
2,ATTACCGG,0.209
3,AGTCCGCC,-0.31
4,CATGTAAG,0.121
5,CGTATGAA,0.143
6,ACTGTACC,0.066
7,ATCGCTTG,0.0249
8,GCGTACGC,0.0744
9,ATACTGAG,0.216
10,GGCTGACC,-0.171
11,CCTGCTAA,-0.0229
12,CTGCTGCC,-0.273
13,GACCGAAA,-0.0532
14,ATCGGGGG,-0.417
15,CGGCTTGA,-0.199
16,CAGGATCA,-0.0628
17,ATTCGCGA,0.108
18,AAATGCAA,0.155
19,CTAATACA,0.245
20,CCGGTGTC,-0.169
21,AAGCTAGG,-0.054
22,GAGATCTA,0.226
23,ACTACTAG,0.346
24,CCGACCCG,-0.275
25,ACACGCTC,-0.0584

row,Sequence,binding signal [E-score]
1,AGCAACCA,0.0365
2,CACGTTCG,-0.0784
3,CCGAGCAA,-0.0793
4,AATTTAGG,0.21
5,AACGCCAG,0.0379
6,ACCTCTAG,-0.13
7,AGCGTGCC,-0.24
8,CGGGTCGA,-0.282
9,CTAATCAG,-0.174
10,GCTGACAA,0.0483
11,ACGGGTGC,-0.295
12,GACTGAAA,-0.0354
13,GAAGCGAA,0.021
14,CCGATGTC,-0.147
15,TAGCGATA,0.14
16,GAGACACC,-0.292
17,ACGCCGGG,-0.278
18,GATGCCTA,-0.134
19,TTTAGAAA,0.183
20,CCATGACA,0.0472
21,ACCCTTGG,-0.21
22,CGTGAAGC,-0.239
23,ACTCGCAC,-0.112
24,GATGCCGC,-0.145
25,ATAATGTA,0.4

row,Sequence,binding signal [E-score]
1,AGCAACGC,-0.264
2,CTCCACAA,-0.0174
3,AGTTACGA,0.167
4,GCTAGCTA,0.156
5,GACACTGA,-0.199
6,GGAATTTA,0.184
7,AGTCATGA,0.139
8,ACTCAACG,-0.158
9,GGATGATA,0.106
10,ATGAACGG,-0.062
11,GGTCGATA,-0.0286
12,CGTATCAG,-0.0951
13,CAGGACAG,-0.0785
14,GGTTCCCA,-0.237
15,ACGCTTCC,-0.206
16,AAAGATCT,0.155
17,ACACTATC,0.211
18,AGTGCTCG,-0.205
19,GAACCCTC,-0.267
20,ATAAAGAC,0.113
21,GACTGGGA,-0.0412
22,CAGGGGTA,0.0671
23,GCCAAGTA,0.107
24,TGAAGTCA,-0.0361
25,GGGGACCC,-0.373

row,Sequence,binding signal [E-score]
1,ACTTTTAT,0.355
2,CCCCGACG,-0.176
3,ATGCTCGA,0.00823
4,ATATAGCC,-0.000533
5,AGTTGGGA,-0.117
6,GCGGTCTA,-0.0867
7,GCAGGCCC,-0.3
8,CTAGAAAC,0.3
9,GACCTATC,0.187
10,ATCATTGG,0.173
11,CATCACCA,0.0136
12,AATCCTGA,0.048
13,CAGGACTC,-0.331
14,CCGACATC,-0.0759
15,ATCTGAGC,-0.0818
16,CGACGTGA,0.048
17,CATAGTAC,0.291
18,ACAGTGCA,-0.12
19,CCCGATCA,-0.15
20,GGCCAAAA,-0.259
21,ATACTCGG,-0.0674
22,ATCGTCTG,-0.00651
23,CATCCGTC,-0.228
24,CGTCACGA,-0.0523
25,ATAAATCC,0.258

row,Sequence,binding signal [E-score]
1,CTCGGCGA,-0.139
2,GAGATCGC,-0.185
3,CGGTTTAC,0.0457
4,AGGAGCAT,-0.156
5,CTTCGCTC,-0.267
6,CGGATAAC,0.013
7,CGGGATTA,-0.224
8,GGATACCC,-0.103
9,CCACACGA,0.00954
10,CTATGGAC,-0.114
11,CAGGTTCG,-0.342
12,CATATGGG,-0.125
13,CGTACTTC,0.14
14,ACAGTAAG,0.116
15,CGAGCACC,-0.249
16,AGGATCGG,-0.226
17,ACTGAGCC,-0.225
18,CCGTTCGA,-0.224
19,TTAAATAA,0.21
20,CCAGTAAA,-0.00743
21,AATGTACG,0.192
22,GGGCAAAC,-0.0617
23,ACAGGAGC,-0.237
24,ACGAGTTA,0.226
25,TACTTCAA,0.252

row,Sequence,binding signal [E-score]
1,CGCCTTAA,-0.102
2,CCATATTC,0.138
3,CTTTAACC,0.0828
4,AATGTAAT,0.326
5,ATGGTTAG,0.0706
6,CCCCTCGG,-0.432
7,CATGCGGA,0.0647
8,ACTCCGTG,-0.0762
9,CTTCTCGA,-0.0858
10,AAGCAATC,0.0982
11,ATCTGACG,-0.0129
12,CAGACAAA,0.0401
13,AAGTGATG,0.177
14,CCCCAACG,-0.345
15,CCATCAAG,-0.215
16,CGGTTGGC,-0.23
17,CTGTAGCA,0.175
18,CCCCTAGG,-0.319
19,ATTATTTG,0.157
20,TAGGGTGA,-0.283
21,CGATTCCC,-0.133
22,AAAGTCTG,-0.00574
23,ACGTGCCT,-0.184
24,ACGAGAAT,0.00849
25,AATGTGGT,0.201

row,Sequence,binding signal [E-score]
1,ATGTATGA,0.139
2,CTGTGACA,-0.0794
3,GCCAAGAC,-0.115
4,ATAACCTA,0.141
5,CGGAACCG,-0.184
6,CCATATAG,0.0758
7,TCCAGAGA,-0.135
8,GAGTAACA,0.0733
9,AGGTATAA,0.322
10,GACAGACA,0.0826
11,GAATTGGC,-0.183
12,ACTGGTCT,-0.00744
13,AACACTTG,0.0557
14,AATCCTGG,-0.0447
15,CCATGGAC,-0.0898
16,TCGTCGCA,-0.0448
17,ATTAAAGC,0.131
18,ATCTAAGG,0.188
19,ATGTTTCC,0.0873
